Paper PMC12820563
This is one part of the list. The list includes weakly bound sequences.

These sequences were tested against T1, MBP-FoxP3dN (UniProt Q99JB6) (assay: PD-seq (MBP pull-down with sequencing)). Settings: 20 mM Tris-HCl pH 7.5, 100 mM NaCl, 1.5 mM MgCl2, 0.4 uM protein, 0.1 uM dsDNA library, 30 min, room temperature, amylose pull-down; high values mean tight binding; double strand, one strand shown.
T1 sequence: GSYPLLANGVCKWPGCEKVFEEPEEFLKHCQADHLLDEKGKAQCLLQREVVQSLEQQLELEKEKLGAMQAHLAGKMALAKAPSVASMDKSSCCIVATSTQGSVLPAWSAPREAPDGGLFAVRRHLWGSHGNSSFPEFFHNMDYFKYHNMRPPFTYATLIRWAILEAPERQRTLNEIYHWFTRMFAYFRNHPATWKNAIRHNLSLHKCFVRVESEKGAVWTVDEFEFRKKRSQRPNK

Sequence	binding signal (RPM ratio (pull-down/input))
GATGATTGTTCTCCCAGCTGATGAATTTTATTCCTCGAGTAAACAAATTTTCCTAATCTTTCTGTTCAAGCGCCATCTAC	0.565
GATGATTGTTCTCCCAGCTGATGAATTTTACCGCTCGAGTAAACAAATTTTCCTAATCTTTCTGTTCAAGCGCCATCTAC	0.282
GATGATTGTTCTCCCAGCTGATGAATTAAGTGGATCGAGTAAACAAATTTTCCTAATCTTTCTGTTCAAGCGCCATCTAC	0.634
GATGATTGTTCTCCCAGCTGATGAATTGGTACGCTCGAGTAAACAAATTTTCCTAATCTTTCTGTTCAAGCGCCATCTAC	0.466
GATGATTGTTCTCCCAGCTGATGAATTCCGCCACTCGAGTAAACAAATTTTCCTAATCTTTCTGTTCAAGCGCCATCTAC	6.15
GATGATTGTTCTCCCAGCTGATGAATTGAACACCTCGAGTAAACAAATTTTCCTAATCTTTCTGTTCAAGCGCCATCTAC	0.395
GATGATTGTTCTCCCAGCTGATGAATTCGCGTTATCGAGTAAACAAATTTTCCTAATCTTTCTGTTCAAGCGCCATCTAC	1.22
GATGATTGTTCTCCCAGCTGATGAATTTTTAATTTCGAGTAAACAAATTTTCCTAATCTTTCTGTTCAAGCGCCATCTAC	0.322
GATGATTGTTCTCCCAGCTGATGAATTTAGATCATCGAGTAAACAAATTTTCCTAATCTTTCTGTTCAAGCGCCATCTAC	0.644
GATGATTGTTCTCCCAGCTGATGAATTTTAGCCATCGAGTAAACAAATTTTCCTAATCTTTCTGTTCAAGCGCCATCTAC	1.79
GATGATTGTTCTCCCAGCTGATGAATTCGCGACGTCGAGTAAACAAATTTTCCTAATCTTTCTGTTCAAGCGCCATCTAC	0.439
GATGATTGTTCTCCCAGCTGATGAATTTGGCAAGTCGAGTAAACAAATTTTCCTAATCTTTCTGTTCAAGCGCCATCTAC	1.49
GATGATTGTTCTCCCAGCTGATGAATTCACAACATCGAGTAAACAAATTTTCCTAATCTTTCTGTTCAAGCGCCATCTAC	2.47
GATGATTGTTCTCCCAGCTGATGAATTGTCGAAATCGAGTAAACAAATTTTCCTAATCTTTCTGTTCAAGCGCCATCTAC	0.417
GATGATTGTTCTCCCAGCTGATGAATTCCTGGAATCGAGTAAACAAATTTTCCTAATCTTTCTGTTCAAGCGCCATCTAC	0.154
GATGATTGTTCTCCCAGCTGATGAATTGTAGGGGTCGAGTAAACAAATTTTCCTAATCTTTCTGTTCAAGCGCCATCTAC	0.53
GATGATTGTTCTCCCAGCTGATGAATTATTACCATCGAGTAAACAAATTTTCCTAATCTTTCTGTTCAAGCGCCATCTAC	0.539
GATGATTGTTCTCCCAGCTGATGAATTACCCTAGTCGAGTAAACAAATTTTCCTAATCTTTCTGTTCAAGCGCCATCTAC	0.237
GATGATTGTTCTCCCAGCTGATGAATTATATTCATCGAGTAAACAAATTTTCCTAATCTTTCTGTTCAAGCGCCATCTAC	0.709
GATGATTGTTCTCCCAGCTGATGAATTCAACAGCTCGAGTAAACAAATTTTCCTAATCTTTCTGTTCAAGCGCCATCTAC	0.333
GATGATTGTTCTCCCAGCTGATGAATTCCATCATTCGAGTAAACAAATTTTCCTAATCTTTCTGTTCAAGCGCCATCTAC	0.795

Sequence	binding signal (RPM ratio (pull-down/input))
GATGATTGTTCTCCCAGCTGATGAATTCCTTGATTCGAGTAAACAAATTTTCCTAATCTTTCTGTTCAAGCGCCATCTAC	0.263
GATGATTGTTCTCCCAGCTGATGAATTCCTTGTGTCGAGTAAACAAATTTTCCTAATCTTTCTGTTCAAGCGCCATCTAC	0.577
GATGATTGTTCTCCCAGCTGATGAATTTAGAAGGTCGAGTAAACAAATTTTCCTAATCTTTCTGTTCAAGCGCCATCTAC	0.292
GATGATTGTTCTCCCAGCTGATGAATTCGAACAGTCGAGTAAACAAATTTTCCTAATCTTTCTGTTCAAGCGCCATCTAC	0.257
GATGATTGTTCTCCCAGCTGATGAATTGCATCTATCGAGTAAACAAATTTTCCTAATCTTTCTGTTCAAGCGCCATCTAC	5.45
GATGATTGTTCTCCCAGCTGATGAATTCTCGAGGTCGAGTAAACAAATTTTCCTAATCTTTCTGTTCAAGCGCCATCTAC	0.163
GATGATTGTTCTCCCAGCTGATGAATTCATCGGGTCGAGTAAACAAATTTTCCTAATCTTTCTGTTCAAGCGCCATCTAC	0.356
GATGATTGTTCTCCCAGCTGATGAATTAACCTTCTCGAGTAAACAAATTTTCCTAATCTTTCTGTTCAAGCGCCATCTAC	0.222
GATGATTGTTCTCCCAGCTGATGAATTCGGATTGTCGAGTAAACAAATTTTCCTAATCTTTCTGTTCAAGCGCCATCTAC	0.919
GATGATTGTTCTCCCAGCTGATGAATTATGCTTCTCGAGTAAACAAATTTTCCTAATCTTTCTGTTCAAGCGCCATCTAC	2.5
GATGATTGTTCTCCCAGCTGATGAATTTGGGCCCTCGAGTAAACAAATTTTCCTAATCTTTCTGTTCAAGCGCCATCTAC	0.523
GATGATTGTTCTCCCAGCTGATGAATTTGACGCGTCGAGTAAACAAATTTTCCTAATCTTTCTGTTCAAGCGCCATCTAC	0.925
GATGATTGTTCTCCCAGCTGATGAATTGCAAACTTCGAGTAAACAAATTTTCCTAATCTTTCTGTTCAAGCGCCATCTAC	0.849
GATGATTGTTCTCCCAGCTGATGAATTTGTAGATTCGAGTAAACAAATTTTCCTAATCTTTCTGTTCAAGCGCCATCTAC	2.47
GATGATTGTTCTCCCAGCTGATGAATTGACGGGATCGAGTAAACAAATTTTCCTAATCTTTCTGTTCAAGCGCCATCTAC	0.304
GATGATTGTTCTCCCAGCTGATGAATTTAAGTCATCGAGTAAACAAATTTTCCTAATCTTTCTGTTCAAGCGCCATCTAC	0.494
GATGATTGTTCTCCCAGCTGATGAATTCAGGGTTTCGAGTAAACAAATTTTCCTAATCTTTCTGTTCAAGCGCCATCTAC	0.576
GATGATTGTTCTCCCAGCTGATGAATTCACTAGATCGAGTAAACAAATTTTCCTAATCTTTCTGTTCAAGCGCCATCTAC	0.21
GATGATTGTTCTCCCAGCTGATGAATTTTCAAGTTCGAGTAAACAAATTTTCCTAATCTTTCTGTTCAAGCGCCATCTAC	0.224
GATGATTGTTCTCCCAGCTGATGAATTAATACGGTCGAGTAAACAAATTTTCCTAATCTTTCTGTTCAAGCGCCATCTAC	0.434
GATGATTGTTCTCCCAGCTGATGAATTCAACGGCTCGAGTAAACAAATTTTCCTAATCTTTCTGTTCAAGCGCCATCTAC	0.27

Sequence	binding signal (RPM ratio (pull-down/input))
GATGATTGTTCTCCCAGCTGATGAATTTTCGAATTCGAGTAAACAAATTTTCCTAATCTTTCTGTTCAAGCGCCATCTAC	0.732
GATGATTGTTCTCCCAGCTGATGAATTTGTGGAATCGAGTAAACAAATTTTCCTAATCTTTCTGTTCAAGCGCCATCTAC	0.752
GATGATTGTTCTCCCAGCTGATGAATTCTTTCTCTCGAGTAAACAAATTTTCCTAATCTTTCTGTTCAAGCGCCATCTAC	0.189
GATGATTGTTCTCCCAGCTGATGAATTGGCCCGTTCGAGTAAACAAATTTTCCTAATCTTTCTGTTCAAGCGCCATCTAC	0.297
GATGATTGTTCTCCCAGCTGATGAATTCCGCTCCTCGAGTAAACAAATTTTCCTAATCTTTCTGTTCAAGCGCCATCTAC	0.997
GATGATTGTTCTCCCAGCTGATGAATTCAGGTGGTCGAGTAAACAAATTTTCCTAATCTTTCTGTTCAAGCGCCATCTAC	0.375
GATGATTGTTCTCCCAGCTGATGAATTAGCACATTCGAGTAAACAAATTTTCCTAATCTTTCTGTTCAAGCGCCATCTAC	0.544
GATGATTGTTCTCCCAGCTGATGAATTACAGCCGTCGAGTAAACAAATTTTCCTAATCTTTCTGTTCAAGCGCCATCTAC	0.412
GATGATTGTTCTCCCAGCTGATGAATTCCACTCATCGAGTAAACAAATTTTCCTAATCTTTCTGTTCAAGCGCCATCTAC	0.57
GATGATTGTTCTCCCAGCTGATGAATTTGTTGGCTCGAGTAAACAAATTTTCCTAATCTTTCTGTTCAAGCGCCATCTAC	7
GATGATTGTTCTCCCAGCTGATGAATTTATGAGGTCGAGTAAACAAATTTTCCTAATCTTTCTGTTCAAGCGCCATCTAC	1.07
GATGATTGTTCTCCCAGCTGATGAATTATTGGAGTCGAGTAAACAAATTTTCCTAATCTTTCTGTTCAAGCGCCATCTAC	0.296
GATGATTGTTCTCCCAGCTGATGAATTTTCTCCCTCGAGTAAACAAATTTTCCTAATCTTTCTGTTCAAGCGCCATCTAC	0.212
GATGATTGTTCTCCCAGCTGATGAATTTCGCGCTTCGAGTAAACAAATTTTCCTAATCTTTCTGTTCAAGCGCCATCTAC	1.03
GATGATTGTTCTCCCAGCTGATGAATTGGTTAGCTCGAGTAAACAAATTTTCCTAATCTTTCTGTTCAAGCGCCATCTAC	1.02
GATGATTGTTCTCCCAGCTGATGAATTTGAACGATCGAGTAAACAAATTTTCCTAATCTTTCTGTTCAAGCGCCATCTAC	0.224
GATGATTGTTCTCCCAGCTGATGAATTCCGCTTATCGAGTAAACAAATTTTCCTAATCTTTCTGTTCAAGCGCCATCTAC	1.8
GATGATTGTTCTCCCAGCTGATGAATTATTGACATCGAGTAAACAAATTTTCCTAATCTTTCTGTTCAAGCGCCATCTAC	2.27
GATGATTGTTCTCCCAGCTGATGAATTACTTTCATCGAGTAAACAAATTTTCCTAATCTTTCTGTTCAAGCGCCATCTAC	0.366
GATGATTGTTCTCCCAGCTGATGAATTCGAAAGATCGAGTAAACAAATTTTCCTAATCTTTCTGTTCAAGCGCCATCTAC	0.184
GATGATTGTTCTCCCAGCTGATGAATTTAGTTGTTCGAGTAAACAAATTTTCCTAATCTTTCTGTTCAAGCGCCATCTAC	5.93
